Measurements published in patent US4866044A, “Solubilized composition of poorly-soluble pharmaceutical product” (Takeda Chemical Industries, Ltd., priority 1985, dated 1989).

What was measured:
[1] = for solubility in water: 5° C., 50 mg in 1 ml of water
[2] = stored for a long term

| Compound | solubility in water [1] | stability in aqueous solution [2] | properties of combination with sodium salicylate ([1]; with sodium salicylate, unsuitable for intravenous administration) |
| --- | --- | --- | --- |
| CCCCCCCCCCCCCCCCCCOCC(COP(=O)([O-])OCC[N+](C)(C)C)OC (centres unmarked) [Compound [2]] | clear semi-solid |  |  |
| CCCCCCCCCCCCCCCCCCNC(=O)OCC(COP(=O)([O-])OCC[n+]1ccsc1)OC (centres unmarked) [Compound [1], 3-(n-Octadecylcarbamoyloxy)-2-methoxypropyl 2-thiazolioethyl phosphate] | cloudy | unstable |  |
| CCCCCCCCCCCCCCCCCCNC(=O)OCC(COP(=O)([O-])OCC[N+](C)(C)C)OC (centres unmarked) [Compound [3]] | clear semi-solid |  | semisolid |
